Test results published in PubChem BioAssay (Tox21).
Inconclusive results, whose numbers are uncertain, are shown with a selection of clear calls. Potencies of inconclusive entries are doubtful fits and often do not repeat. The source made the active and inactive calls. Unless noted, calls come from the whole dose curve; as a rule, active = well fitted curve in the direction sought with a large enough effect in the repeat runs; inconclusive = weak or mixed curves; inactive = no such curve, though single readings can be large; an effect the other way counts as inactive or inconclusive.

Legend:
[1] = target: Peroxisome proliferator-activated receptor gamma (Homo sapiens) (UniProt P37231); assay: qHTS assay to identify small molecule antagonists of the peroxisome proliferator-activated receptor gamma (PPARg) signaling pathway (AID 743191; calls by dose curve; note: nearly all actives have a fitted effect of over 30% in size; for ratio activity, negative = inhibition: % is set by controls: 0 for no effect and ±100 for the full control effect); conditions: HEK293H PPARg-UAS-bla, beta-lactamase ratio, antagonist, 17 h
Outline: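 Beta-lactamase reporter under UAS control in HEK293H PPARg-bla cells; compound treatment 17 h at 37C. Read-out: fluorescence intensity after 1 h room-temperature incubation with LiveBLAzer B/G FRET substrate.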

[2] = target: Peroxisome proliferator-activated receptor gamma (Homo sapiens) (UniProt P37231); assay: qHTS assay to identify small molecule agonists of the peroxisome proliferator-activated receptor gamma (PPARg) signaling pathway (AID 743094; active = well fitted activation curve with a large enough effect in the signal ratio in the repeat runs, not every such curve was filed as active; inconclusive = weak or mixed curves, or effect the other way; inactive = no such curve, though single readings can be large or run the other way; the % refers to the signal ratio; for activation: % is set by controls: 0 for no effect and ±100 for the full control effect); conditions: HEK293H PPARg-UAS-bla, beta-lactamase FRET ratio, 17 h; activation: at 57 µM (top of the series) unless noted
Outline: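 Fluorescence-based beta-lactamase readout in HEK293H PPARg UAS-bla cells after 17 h compound exposure (37C) and 1 h B/G FRET substrate incubation at room temperature.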

[3] = qHTS assay for small molecule agonists of the antioxidant response element (ARE) signaling pathway (AID 743202; active = well fitted activation curve with a large enough effect in the signal ratio in the repeat runs, not every such curve was filed as active; inconclusive = weak or mixed curves, or effect the other way; inactive = no such curve, though single readings can be large or run the other way; the % refers to the signal ratio); conditions: HepG2 ARE-bla reporter, beta-lactamase FRET, 16 h; activation: at 73.3 µM (top of the series) unless noted
Outline: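 After 16 hours of compound treatment at 37 C, HepG2 cells with a stably integrated ARE-driven beta-lactamase reporter were loaded 2 hours at room temperature with LiveBLAzer B/G FRET substrate and fluorescence intensity measured.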

[4] = qHTS assay to identify small molecule antagonists of the peroxisome proliferator-activated receptor gamma (PPARg) signaling pathway - cell viability counter screen (AID 743194); conditions: PPARg-bla HEK293H viability, CellTiter-Glo luminescence, 17 h, co-treated with 50 nM rosiglitazone; activity change, negative = cytotoxicity: at 62.6 µM (top of the series) unless noted; note: nearly all actives have a fitted effect of over 55% in size; for activity change, negative = cytotoxicity: % is set by controls: 0 for no effect and ±100 for the full control effect
Outline: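 Viability was measured as CellTiter-Glo luminescence in GeneBLAzer PPARg UAS-bla HEK293H cells. These cells had been exposed 17 h at 37 C to compounds together with rosiglitazone at 50 nM final, with the beta-lactamase readout taken in the same wells.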

[5] = qHTS assay for small molecule agonists of the antioxidant response element (ARE) signaling pathway - cell viability counter screen (AID 743203; calls by dose curve; note: nearly all actives have a fitted effect of over 55% in size); conditions: ARE-bla HepG2 viability, CellTiter-Glo luminescence, 16 h; viability change, negative = cytotoxic: at 73.3 µM (top of the series)
Outline: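 Parallel cytotoxicity read-out for the ARE-bla screen: HepG2 reporter cells, 16 hrs with compounds, then CellTiter-Glo luminescence.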

[6] = qHTS assay for small molecule activators of the heat shock response signaling pathway - cell viability counter screen (AID 743209); conditions: HSE-bla HeLa viability, CellTiter-Glo luminescence, 5 h; activity change, negative = cytotoxicity: at 62.6 µM (top of the series) unless noted; note: nearly all actives have a fitted effect of over 50% in size
Outline: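 To flag cytotoxic compounds, HSE-bla HeLa cells plated at 1500 cells/well were dosed for 5 h at 37 C, followed by the reporter FRET read and then CellTiter-Glo, with luminescence recorded 30 min after reagent addition.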

[7] = qHTS assay for small molecule activators of the heat shock response signaling pathway (AID 743210; active = well fitted activation curve with a large enough effect in the signal ratio in the repeat runs, with a control signal flat, not every such curve was filed as active; inconclusive = weak or mixed curves; the % refers to the signal ratio; for activation: % is set by controls: 0 for no effect and ±100 for the full control effect); conditions: HeLa HSE-bla reporter, beta-lactamase ratio, 5 h; activation: at 62.6 µM (top of the series) unless noted
Outline: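 Compound exposure lasted 5 h at 37 C in HeLa cells carrying a heat-shock-element-driven beta-lactamase reporter. Read-out: fluorescence intensity after 2.5 h room-temperature loading with LiveBLAzer B/G FRET substrate.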

[8] = qHTS assay to identify small molecule agonists of the peroxisome proliferator-activated receptor delta (PPARd) signaling pathway - cell viability counter screen (AID 743211); conditions: PPARd-bla HEK293H viability, CellTiter-Glo luminescence, 17 h; activity change, negative = cytotoxicity: at 62.6 µM (top of the series); note: nearly all actives have a fitted effect of over 55% in size
Outline: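 Following 5 h plating at 37 C and 5% CO2, PPARd UAS-bla HEK293H cells took up test compounds for 17 h. Viability was quantified by luminescence 30 min after CellTiter-Glo addition at room temperature.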

[9] = ratio activity, negative = inhibition: at 62.6 µM (top of the series) unless noted
Potency is the fitted concentration of half-maximal effect; tags give direction and shape of the fitted curve or compound fluorescence and quenching.

Sequence of UniProt P37231 (P37231 whole entry, looked up): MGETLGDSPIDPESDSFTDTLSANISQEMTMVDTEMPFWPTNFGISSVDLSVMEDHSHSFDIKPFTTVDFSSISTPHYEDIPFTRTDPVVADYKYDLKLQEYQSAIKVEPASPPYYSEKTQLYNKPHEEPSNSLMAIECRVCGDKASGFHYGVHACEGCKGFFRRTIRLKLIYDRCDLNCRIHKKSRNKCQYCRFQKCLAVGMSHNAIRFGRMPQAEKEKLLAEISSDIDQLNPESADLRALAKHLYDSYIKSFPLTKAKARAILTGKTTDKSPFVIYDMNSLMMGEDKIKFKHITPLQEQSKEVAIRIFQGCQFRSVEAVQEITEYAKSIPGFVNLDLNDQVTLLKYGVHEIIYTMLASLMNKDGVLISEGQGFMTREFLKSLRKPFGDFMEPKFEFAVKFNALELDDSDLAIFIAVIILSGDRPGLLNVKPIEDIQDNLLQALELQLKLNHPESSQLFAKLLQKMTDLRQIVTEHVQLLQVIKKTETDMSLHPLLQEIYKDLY

Question: For `CCCCOC(=O)c1ccccc1`, which Potency [1, 9] is on record?
Answer: inactive

Question: What does the source list for `O=P(O)(O)Oc1ccccc1`?
Answer: Potency [2]: inactive; Potency [3]: inconclusive: 61.1 µM [rising, partial curve]

Question: Which results are given for `Fc1ccc(C(c2ccc(F)cc2)N2CCN(C/C=C/c3ccccc3)CC2)cc1`?
Answer: activation [2]: inconclusive: -14%; Potency [4]: inconclusive: 29.8 µM [cytotoxic, single point]; Potency [3]: inconclusive: 29.8 µM [rising, single point]; Potency [5]: inconclusive: 29.8 µM [cytotoxic, single point]; Potency [6]: inconclusive: 29.8 µM [cytotoxic, single point]; Potency [7]: inconclusive: 21.1 µM [falling, partial curve]; Potency [8]: inconclusive: 29.8 µM [cytotoxic, single point]

Question: What does the source list for `CCN(CC)C(=O)/C(C#N)=C/c1cc(O)c(O)c([N+](=O)[O-])c1`?
Answer: activation [2]: inconclusive: 6.31%; Potency [3]: inconclusive: 8.41 µM [falling, full curve]; Potency [7]: inconclusive: 22 µM [activator]

Question: Which Potency [2] does the source give for `CC1=C(/C=C/C(C)=C\C=C\C(C)=C\C(=O)O)C(C)(C)CCC1` here?
Answer: inconclusive: 3.89 µM [activator, full curve]

Question: What about the Potency [3] of the same compound?
Answer: inconclusive: 0.0273 µM [falling, full curve]

Question: With `COC(C)OC` as the compound, how does the Potency [1, 9] read?
Answer: inactive

Question: With `CCC(CO)(CO)CO` as the compound, how does the Potency [1, 9] read?
Answer: inactive

Question: With `C/C=C/C=C/C=O` as the compound, how does the Potency [2] read?
Answer: inactive

Question: And the Potency [4]?
Answer: inconclusive: 54.6 µM [cytotoxic, single point]

Question: What about the Potency [3] of the same compound?
Answer: inconclusive: 30.4 µM

Question: What about the Potency [7] of the same compound?
Answer: inactive

Question: Which Potency [2] does the source give for `CCCCCCCCCCC(=O)O` here?
Answer: inconclusive: 35.1 µM [fluorescent, partial curve, poor fit]

Question: And the Potency [4]?
Answer: inactive

Question: What about the activation [3] of the same compound?
Answer: inconclusive: 20.8% [at 94.8 µM]

Question: Which Potency [1, 9] does the source give for `CN(C)CCCOC1(Cc2ccccc2)CCCCCC1` here?
Answer: inactive

Question: Which results are given for `CCCC(=O)CC`?
Answer: Potency [2]: inactive; Potency [3]: inactive

Question: For `Nc1nc(Cl)nc2c1ncn2[C@@H]1O[C@H](CO)[C@@H](O)[C@@H]1F`, which activation [2] is on record?
Answer: inconclusive: -12%

Question: What about the Potency [3] of the same compound?
Answer: inconclusive: 1.68 µM [rising, full curve]

Question: Which ratio activity, negative = inhibition ([1]; at 81.1 µM (top of the series)) does the source give for `O=C(Oc1ccccc1)c1ccc(O)cc1` here?
Answer: inactive: -8%

Question: What about the ratio activity, negative = inhibition [1, 9] of the same compound?
Answer: inconclusive: -28.8%

Question: What about the Potency [8] of the same compound?
Answer: inconclusive: 11 µM [cytotoxic, full curve, poor fit]

Question: With `O=Nc1ccc(O)cc1` as the compound, how does the ratio activity, negative = inhibition [1, 9] read?
Answer: inconclusive: -2.01%

Question: What about the Potency [4] of the same compound?
Answer: inactive

Question: For `CCCCCSCCCCC`, which Potency [1, 9] is on record?
Answer: inconclusive: 54.9 µM [activator, single point]

Question: What about the Potency [4] of the same compound?
Answer: inactive
